Results on one molecule are retold here after paper PMC9216511 (Science Advances, 2022).

The target of the experiment is cytoplasmic fragment of rat syntaxin-1A (residues 2-253) (rat, UniProt P32851). The experiment is described as follows: FRET or BRET.
Sequence of UniProt P32851 (P32851 2-253): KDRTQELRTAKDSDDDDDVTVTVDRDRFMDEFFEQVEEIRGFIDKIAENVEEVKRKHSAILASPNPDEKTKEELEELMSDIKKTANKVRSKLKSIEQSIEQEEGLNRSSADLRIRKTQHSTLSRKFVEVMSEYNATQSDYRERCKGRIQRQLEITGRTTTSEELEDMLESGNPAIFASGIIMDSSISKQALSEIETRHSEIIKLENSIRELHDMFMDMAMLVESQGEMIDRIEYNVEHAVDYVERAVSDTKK

B1: SNAP-25a R136C C84S, C85S, C90S, C92S labeled with tetramethylrhodamine (natural protein)
chain: not shown
Consider B1, for which the binding result is given as “binds”.
